{
  "source": "PubChem BioAssay (Tox21)",
  "key": {"[1]": {"biological_target": "Thyrotropin receptor (Homo sapiens) (UniProt P16473)", "sequence (P16473 whole entry, looked up)": "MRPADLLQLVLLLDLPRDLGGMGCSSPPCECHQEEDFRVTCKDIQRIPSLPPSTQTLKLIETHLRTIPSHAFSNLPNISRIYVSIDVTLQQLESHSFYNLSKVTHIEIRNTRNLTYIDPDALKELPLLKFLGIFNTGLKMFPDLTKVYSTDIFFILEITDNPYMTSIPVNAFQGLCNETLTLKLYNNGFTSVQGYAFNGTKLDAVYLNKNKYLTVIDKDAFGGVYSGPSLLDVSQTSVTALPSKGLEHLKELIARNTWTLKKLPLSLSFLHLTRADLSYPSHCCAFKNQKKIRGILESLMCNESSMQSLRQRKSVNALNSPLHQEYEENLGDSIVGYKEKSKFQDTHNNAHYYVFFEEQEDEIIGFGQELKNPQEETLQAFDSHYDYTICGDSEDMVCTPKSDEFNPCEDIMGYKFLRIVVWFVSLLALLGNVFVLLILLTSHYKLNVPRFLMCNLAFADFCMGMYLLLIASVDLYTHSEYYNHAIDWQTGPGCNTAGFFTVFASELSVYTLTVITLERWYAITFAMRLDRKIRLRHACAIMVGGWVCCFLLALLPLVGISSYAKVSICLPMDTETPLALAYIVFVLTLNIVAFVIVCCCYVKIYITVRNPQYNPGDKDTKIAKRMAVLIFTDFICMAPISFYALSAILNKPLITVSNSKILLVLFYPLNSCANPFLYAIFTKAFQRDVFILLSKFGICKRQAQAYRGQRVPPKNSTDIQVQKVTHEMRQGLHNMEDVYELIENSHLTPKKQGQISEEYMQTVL", "assay": "qHTS assay to identify small molecule antagonists of the thyroid stimulating hormone receptor (TSHR) signaling pathway (AID 1259385); also: nearly all actives have a fitted effect of over 20% in size; as to activity change, negative = inhibition: % is scaled to controls: 0 for no effect and ±100 for the full control effect", "details": "TSHR-HEK293 cAMP HTRF, TSH-stimulated antagonist mode; activity change, negative = inhibition: at 92.4 µM (top of the series) unless noted", "how_it_was_run": "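Antagonist mode: compound-treated TSHR-expressing HEK293 cells were stimulated with 1.5 ng/mL TSH (final) in presence of Ro20-1724 for 30 min at RT. HTRF cAMP detection after 1 h; each compound tested at 15 concentrations, triplicate.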"}, "[2]": {"biological_target": "Progesterone receptor (Homo sapiens) (UniProt P06401)", "sequence (P06401 whole entry, looked up)": "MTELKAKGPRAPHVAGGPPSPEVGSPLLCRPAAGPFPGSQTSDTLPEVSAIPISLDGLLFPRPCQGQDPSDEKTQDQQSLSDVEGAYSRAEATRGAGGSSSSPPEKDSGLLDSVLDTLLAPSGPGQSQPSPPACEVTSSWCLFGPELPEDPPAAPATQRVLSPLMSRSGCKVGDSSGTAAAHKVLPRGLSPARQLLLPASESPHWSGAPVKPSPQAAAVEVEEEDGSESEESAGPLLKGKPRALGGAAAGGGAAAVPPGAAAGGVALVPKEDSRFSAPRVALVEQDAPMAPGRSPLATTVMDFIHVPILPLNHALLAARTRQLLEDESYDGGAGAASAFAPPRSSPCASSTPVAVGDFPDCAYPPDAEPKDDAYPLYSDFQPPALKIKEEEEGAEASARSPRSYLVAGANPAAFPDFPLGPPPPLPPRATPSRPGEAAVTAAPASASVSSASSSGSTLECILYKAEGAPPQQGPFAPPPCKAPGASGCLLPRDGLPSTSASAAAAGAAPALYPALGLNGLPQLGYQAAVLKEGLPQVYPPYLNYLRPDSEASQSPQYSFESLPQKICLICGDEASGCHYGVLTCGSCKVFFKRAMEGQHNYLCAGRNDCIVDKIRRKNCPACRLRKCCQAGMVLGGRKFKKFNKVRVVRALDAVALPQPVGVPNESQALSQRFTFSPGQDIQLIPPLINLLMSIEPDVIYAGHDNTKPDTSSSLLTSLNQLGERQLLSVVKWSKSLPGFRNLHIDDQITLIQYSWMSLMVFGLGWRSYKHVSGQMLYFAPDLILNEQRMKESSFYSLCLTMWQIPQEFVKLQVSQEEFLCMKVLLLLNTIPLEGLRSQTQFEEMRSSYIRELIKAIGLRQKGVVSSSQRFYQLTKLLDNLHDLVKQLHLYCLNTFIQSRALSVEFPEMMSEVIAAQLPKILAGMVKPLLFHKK", "assay": "qHTS assay to identify small molecule antagonists of the progesterone receptor (PR) signaling pathway (AID 1346795; active = well fitted inhibition curve with a large enough effect in the signal ratio in the repeat runs, not every such curve was filed as active; inconclusive = weak or mixed curves; the % refers to the signal ratio; as to activity change, negative = inhibition: % is scaled to controls: 0 for no effect and ±100 for the full control effect)", "details": "PR-UAS-bla HEK293T, beta-lactamase FRET ratio, 16 h; activity change, negative = inhibition: at 92.4 µM (top of the series) unless noted", "how_it_was_run": "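Read-out is fluorescence from the LiveBLAzer B/G FRET substrate, cleaved by a UAS-controlled beta-lactamase in PR-UAS-bla HEK293T cells after 16 hr exposure to compound plus 1 nM promegestone (final), followed by 2 hr at room temperature.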"}, "[3]": {"assay": "qHTS assay to identify small molecule antagonists of the progesterone receptor (PR) signaling pathway - cell viability counter screen (AID 1346798; active = well fitted curve in the direction sought with a large enough effect in the repeat runs; inconclusive = weak or mixed curves; inactive = no such curve, though single readings can be large; an effect the other way counts as inactive or inconclusive; also: nearly all actives have a fitted effect of over 50% in size)", "details": "PR-UAS-bla HEK293T viability, CellTiter-Glo luminescence, 16 h; series mostly up to 92.4 µM", "how_it_was_run": "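HEK293T PR-UAS-bla, 2% charcoal-stripped FBS; 4 hr pre-plate; cpd + R5020, 16 h 37C; LiveBLAzer read first; then CellTiter-Glo 30 min RT, luminescence.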"}, "[4]": {"assay": "qHTS assay to identify small molecule agonists of the progesterone receptor (PR) signaling pathway - cell viability counter screen (AID 1346799); also: nearly all actives have a fitted effect of over 45% in size", "details": "PR-UAS-bla HEK293T viability, CellTiter-Glo luminescence, 16 h; series mostly up to 92.4 µM", "how_it_was_run": "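Luminescence from CellTiter-Glo, added after the beta-lactamase FRET read in the same wells, gave cytotoxicity in PR-UAS-bla HEK293T cells treated with compounds for 16 hr at 37C.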"}, "[5]": {"assay": "qHTS assay to identify small molecule antagonists of the TGF-beta/Smad signaling pathway - cell viability counter screen (AID 1346824; active = well fitted curve in the direction sought with a large enough effect in the repeat runs; inconclusive = weak or mixed curves; inactive = no such curve, though single readings can be large; an effect the other way counts as inactive or inconclusive; also: nearly all actives have a fitted effect of over 50% in size)", "details": "SBE-bla HEK293T viability, CellTiter-Glo luminescence; series mostly up to 76.8 µM", "how_it_was_run": "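Cytotoxicity counter-screen run in the same wells as the beta-lactamase Smad reporter read: CellTiter-Glo luminescence after 30 min at room temperature. HEK 293T SBE-bla cells had 5 hr compound exposure at 37 C with TGF-beta1 (0.25 ng/mL stock).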"}, "[6]": {"assay": "qHTS assay to identify small molecule agonists of the TGF-beta/Smad signaling pathway - cell viability counter screen (AID 1346829; active = well fitted curve in the direction sought with a large enough effect in the repeat runs; inconclusive = weak or mixed curves; inactive = no such curve, though single readings can be large; an effect the other way counts as inactive or inconclusive; also: nearly all actives have a fitted effect of over 45% in size)", "details": "SBE-bla HEK293T viability, CellTiter-Glo luminescence, 5 h; series mostly up to 76.8 µM", "how_it_was_run": "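CellTiter-Glo luminescence readout; SBE-bla HEK 293T cells, overnight plating, compound 5 hr at 37 C/5% CO2, then bla substrate 2 hr RT, then CellTiter-Glo 30 min RT.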"}, "[7]": {"assay": "qHTS assay to identify small molecule agonists of the TGF-beta/Smad signaling pathway (AID 1346859; active = well fitted activation curve with a large enough effect in the signal ratio in the repeat runs, not every such curve was filed as active; inconclusive = weak or mixed curves; the % refers to the signal ratio; as to activation: % is scaled to controls: 0 for no effect and ±100 for the full control effect)", "details": "SBE-bla HEK293T, TGF-beta/Smad beta-lactamase reporter, 5 h; activation: at 76.8 µM (top of the series) unless noted", "how_it_was_run": "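SBE-bla HEK 293T, 4,000 cells/well, plated o/n; cpd in DMSO, 5 hr, 37 C/5% CO2; B/G FRET substrate 2 hr RT; ex 405, em 460/530 nm.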"}},
  "note": "The inconclusive results got no clear call from the source; some entries with a clear call stand among them for comparison. Potencies of inconclusive entries are doubtful fits and often do not repeat. Active and inactive are the calls of the source. Unless noted, calls follow the shape of the full dose curve. Potency is read from the fitted curve at half-maximal effect; tags tell the direction and shape of the fitted curve or compound fluorescence and quenching.",
  "data": [
    {"smiles": "COCCCC/C(=N\\OCCN)c1ccc(C(F)(F)F)cc1", "values": [
      {"measurement": "Potency", "setting": "[1]", "result": "active: 29.8 µM"},
      {"measurement": "Potency", "setting": "[2]", "result": "inconclusive: 21.1 µM [falling, partial curve]"},
      {"measurement": "Potency", "setting": "[3]", "result": "inconclusive: 21.1 µM [cytotoxic, partial curve]"},
      {"measurement": "Potency", "setting": "[4]", "result": "inconclusive: 9.44 µM [cytotoxic, full curve]"}
    ]},
    {"smiles": "C[C@@H](C1=C(CCN(C)C)Cc2ccccc21)c1ccccn1", "values": [
      {"measurement": "Potency", "setting": "[1]", "result": "inactive"},
      {"measurement": "Potency", "setting": "[3]", "result": "inconclusive: 23.7 µM [cytotoxic, partial curve]"}
    ]},
    {"smiles": "O=C1NCCN1CCN1CCC(c2cn(-c3ccc(F)cc3)c3ccc(Cl)cc23)CC1", "values": [
      {"measurement": "Potency", "setting": "[1]", "result": "active: 29.8 µM"},
      {"measurement": "Potency", "setting": "[2]", "result": "inconclusive: 29.8 µM"},
      {"measurement": "Potency", "setting": "[3]", "result": "inconclusive: 6.68 µM [cytotoxic, partial curve, poor fit]"},
      {"measurement": "Potency", "setting": "[5]", "result": "inconclusive: 7.56 µM [cytotoxic, partial curve]"},
      {"measurement": "Potency", "setting": "[6]", "result": "inconclusive: 26.8 µM [cytotoxic, partial curve, poor fit]"},
      {"measurement": "Potency", "setting": "[7]", "result": "inactive"}
    ]},
    {"smiles": "COc1ccc(-c2nc3ccc(C4=NNC(=O)CC4C)cc3[nH]2)cc1", "note": "(stereo not drawn)", "values": [
      {"measurement": "activity change, negative = inhibition", "setting": "[1]", "result": "inconclusive: 10.3% [at 42.5 µM]"},
      {"measurement": "Potency", "setting": "[2]", "result": "inconclusive: 8.41 µM [falling, partial curve, poor fit]"},
      {"measurement": "Potency", "setting": "[3]", "result": "inconclusive: 23.7 µM [rising, partial curve]"},
      {"measurement": "Potency", "setting": "[4]", "result": "inconclusive: 18.8 µM [rising, partial curve]"}
    ]},
    {"smiles": "CCCCCCCCCCCCCCCCCCOS(=O)(=O)O", "values": [
      {"measurement": "Potency", "setting": "[1]", "result": "active: 68.6 µM"},
      {"measurement": "Potency", "setting": "[2]", "result": "inactive"},
      {"measurement": "Potency", "setting": "[3]", "result": "active: 54.5 µM"},
      {"measurement": "Potency", "setting": "[4]", "result": "active: 48.6 µM"}
    ]},
    {"smiles": "Cc1nc(-c2ccc(OCC(C)C)c(C#N)c2)sc1C(=O)O", "values": [
      {"measurement": "Potency", "setting": "[1]", "result": "inconclusive: 13.3 µM [falling, full curve]"},
      {"measurement": "Potency", "setting": "[2]", "result": "inconclusive: 29.8 µM [partial curve]"},
      {"measurement": "Potency", "setting": "[7]", "result": "inconclusive: 21.3 µM [rising, partial curve]"}
    ]}
  ]
}
